This passage reports binding signal results from publication PMC6451091.

Some of the results follow. For part of these data: At the low end of the ranking, values are background and their order means little. For part of these data: The protein was read in a cell extract, so binding may be indirect.

Conditions in all cases: 20 mM HEPES pH 7.9, 100 mM NaCl, 1 mM DTT, 0.2 mg/mL BSA, 0.02% Triton X-100, 2% milk, 0.4 mg/mL salmon testes DNA; 1 h; temperature not stated; high values mean tight binding; double strand, one strand shown; sequences stand for … in GCCTAGCAC…GTGCTAGGTCTTGATTCGCTTGACGCTGCTG
One test deals with PU.1 (IVT) (UniProt P17947). In words: protein-binding microarray (PBM).
Test [1] has as its target PU.1 (endogenous, THP-1 nuclear extract) (UniProt P17947). The test is described as follows: nuclear extract protein-binding microarray (nextPBM).
The target of test [2] is T1, FLI1 (endogenous, THP-1 nuclear extract) (UniProt Q01543).
T1 sequence: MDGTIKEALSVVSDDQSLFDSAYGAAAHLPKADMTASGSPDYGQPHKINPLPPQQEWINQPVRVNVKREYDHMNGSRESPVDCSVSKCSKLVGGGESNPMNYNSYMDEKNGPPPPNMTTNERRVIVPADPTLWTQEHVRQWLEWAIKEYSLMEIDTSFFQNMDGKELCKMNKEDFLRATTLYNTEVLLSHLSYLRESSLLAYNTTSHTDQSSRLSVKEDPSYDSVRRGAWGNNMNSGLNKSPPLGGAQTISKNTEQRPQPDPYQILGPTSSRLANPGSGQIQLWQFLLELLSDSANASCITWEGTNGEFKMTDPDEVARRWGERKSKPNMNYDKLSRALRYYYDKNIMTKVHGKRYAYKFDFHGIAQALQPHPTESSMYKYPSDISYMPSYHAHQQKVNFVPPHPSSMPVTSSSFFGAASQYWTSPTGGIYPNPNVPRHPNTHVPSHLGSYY
The description is as above.

Take AATAAGAGGAAGTGACTATT: the binding signal with PU.1 (IVT) stood at 7.49 z-score; in test [1] it was 7.12 z-score; in test [2] it was 3.69 z-score.
In the same order, the values of CAGAAGGGGAAGTGATATAG are 5.72 z-score, 6.05 z-score and 3.03 z-score.
Consider GCAAAGAGGAAGTCACGGAA, for which the binding signal worked out at 6.38 z-score in the test with PU.1 (IVT), 6.33 z-score in test [1] and 4.3 z-score in test [2].
Taken in the same sequence, the figures for GGAAAGAGGAACTGGAGCTG were 5.94 z-score, 6.36 z-score and 2.63 z-score.
Taken in the same sequence, the figures for AGAAAGGGGAAGTCAATCTG were 7.41 z-score, 6.97 z-score and 3.37 z-score.
In the same order, the values of AAAATGAGGAACTGGAAGGT are 6.61 z-score, 6.78 z-score and 2.4 z-score.
Take ACAAAATGGAACTGTGCCCC: the binding signal with PU.1 (IVT) was determined as 0.102 z-score; in test [1], 0.136 z-score; in test [2], 0.258 z-score.
In the same order, the values of AAAAAAAGGAAGTGTCAACT are 6.38 z-score, 6.41 z-score and 2.57 z-score.
Taken in the same sequence, the figures for GGAAGAAGGAAGTGGGGGCC were 3.66 z-score, 3.91 z-score and 2.16 z-score.
Taken in the same sequence, the figures for TTTTTGAGGAACTGTGGGTG were 4.02 z-score, 4.12 z-score and 0.816 z-score.
Consider GAAAATGGGAAGTGACCGCA, for which the binding signal came to 5.62 z-score with PU.1 (IVT), 6.03 z-score in test [1] and 2.02 z-score in test [2].
In the same order, the values of AGAAAGAGGAAGTGGAAGAG are 8.16 z-score, 7.16 z-score and 4.3 z-score.
Taken in the same sequence, the figures for CGAAAGGGGAAGTCCTAAAC were 6.59 z-score, 6.64 z-score and 3.21 z-score.
In the same order, the values of GCAGGGAGGAAGTGGGGAAG are 3.42 z-score, 3.54 z-score and 2.87 z-score.
In the case of AAAAAGAGGAAGTGGGGGAG, the binding signal in the test with PU.1 (IVT) came out at 8.59 z-score; in test [1], 7.6 z-score; in test [2] it was 4.12 z-score.
Taken in the same sequence, the figures for GAAAGCAGGAAGTGCTAGTA were 4.46 z-score, 5.19 z-score and 3.81 z-score.
Taken in the same sequence, the figures for GTGTGGAGGAAGTGGGGTCT were 2.86 z-score, 2.92 z-score and 2.31 z-score.
Consider AGAAAGAGGAACTGCTTCAA, for which the binding signal in the test with PU.1 (IVT) came to 6.72 z-score; in test [1] it was 6.91 z-score; in test [2] it was 2.53 z-score.
Taken in the same sequence, the figures for AGAAAGAGGAAGTCACTCAC were 8.12 z-score, 7.2 z-score and 3.99 z-score.
In the same order, the values of CAAATGAGGAACTGAGGCGG are 5.34 z-score, 6.33 z-score and 1.59 z-score.
In the same order, the values of CAGAAGAGGAACTGAGCCAC are 3.69 z-score, 4.52 z-score and 1.5 z-score.
For the sequence GAAAACAGGAAGTGGGGAGG, the binding signal with PU.1 (IVT) was determined as 6.96 z-score; in test [1], 6.89 z-score; in test [2], 4.98 z-score.
Taken in the same sequence, the figures for CAAATGAGGAACTGATCCGG were 6.03 z-score, 6.44 z-score and 2.11 z-score.
Regarding CAAATAAGGAACTGATGCGG, the binding signal with PU.1 (IVT) is 4.45 z-score; in test [1] it was 4.09 z-score; in test [2], 0.823 z-score.
Taken in the same sequence, the figures for GAAAACAGGAAGTCTCATAG were 6.79 z-score, 6.82 z-score and 4.54 z-score.
Taken in the same sequence, the figures for TGAGAGAGGAAGTGGAGCTC were 4.2 z-score, 4.36 z-score and 3.03 z-score.
Taken in the same sequence, the figures for TGATTGGGGAAGTGGTAAGT were 5.18 z-score, 5.29 z-score and 1.99 z-score.
On to CGAAAGGGGAAGTGCTAGAC, for which the binding signal with PU.1 (IVT) amounted to 7.44 z-score; in test [1], 6.94 z-score; in test [2], 2.9 z-score.
In the case of AGAAAGAGGAAGTCAAACCA, the results for the binding signal (in the test with PU.1 (IVT); in test [1]; in test [2]) were 7.76 z-score, 7.21 z-score and 4.15 z-score, respectively.
Taken in the same sequence, the figures for GGTAAGAGGAAATGAGGAAA were 4.05 z-score, 3.55 z-score and 2.89 z-score.
Taken in the same sequence, the figures for TGAAAGGGGAAGTGGATACT were 6.64 z-score, 6.93 z-score and 3.31 z-score.
In the same order, the values of GAGAAGGGGAAGTAGCGTCT are 5.66 z-score, 6.39 z-score and 3.19 z-score.
